Results: publication PMC10726135
Some of the results follow. At the low end of the ranking the order means little. The protein was read in a cell extract, so binding may be indirect.

These sequences were tested against T1, HNF4alpha2 (COS-7 nuclear extract) (UniProt P41235) (assay: protein-binding microarray). Settings: COS-7 nuclear extract on double-stranded Agilent 4x180k PBM; binding buffer, salt, pH and temperature not given; high values mean tight binding; double strand, one strand shown; sequences stand for … in …GCCTAGGGAGATTAGAGTATCGGTCGA.
T1 sequence: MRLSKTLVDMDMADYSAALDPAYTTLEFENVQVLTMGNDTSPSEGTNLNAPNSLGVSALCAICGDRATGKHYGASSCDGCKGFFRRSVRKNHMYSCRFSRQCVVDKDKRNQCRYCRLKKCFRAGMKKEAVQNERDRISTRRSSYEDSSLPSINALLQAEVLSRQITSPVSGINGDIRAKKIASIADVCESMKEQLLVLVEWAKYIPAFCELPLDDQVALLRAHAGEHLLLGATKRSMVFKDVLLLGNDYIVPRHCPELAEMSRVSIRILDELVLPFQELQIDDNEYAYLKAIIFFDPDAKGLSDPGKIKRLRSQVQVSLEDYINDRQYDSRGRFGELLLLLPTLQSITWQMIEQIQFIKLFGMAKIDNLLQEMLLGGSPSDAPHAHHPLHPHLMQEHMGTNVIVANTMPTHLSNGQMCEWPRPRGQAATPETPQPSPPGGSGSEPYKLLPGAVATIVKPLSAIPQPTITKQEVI

| Sequence | binding signal (log2 normalized intensity) |
| --- | --- |
| TTACTTAATCCCTTGGAATGTCCTTTCCTC | 1.55 |
| TGGACTCTGTTTTAGTTGAGTGTGACAAGA | 1.53 |
| GCAAATAAAGCTAACCAGCTCTATCAGTCT | -1.16 |
| TCTGCGTCTTACTAAATGCAGCCTTGGGCA | -1.15 |
| GGAGGTGACCTTTGGTTGTCCTTACTGCTA | 3.3 |
| TATGCTCACTGACCTCTGCCCTACTGTATA | 3.46 |
| AGTCTGACTACTTCTCACCACCTCTGCTGC | -1.11 |
| TTCCTATCTCTACTTGCCGAAACATTTTCT | 0.0166 |
| CCACCTAATTTAGATATCGCTCCAAGAGCC | -1.21 |
| ACTGAATGTGACCTTTTGGACCACAGAGTG | 5.39 |
| TTGACAGGCAACAATTTGAGGGGTCAAGAA | 2.43 |
| CTGACCTCTTTTGGATTTTTCCATATCTGT | 1.74 |
| ACATTTATTGGACTAGGCACAGGAACCTGT | -0.432 |
| CAGCCACCAAAGCAGCTAGCAAATACAAGG | -1.14 |
| GCCACAATTAATGTACCCCCGGAAACACGT | 3.86 |
| GGTAAACAGCCTCTAAGCACGGCCAGGATT | -1.24 |
| ATCAAGGAGGACTTTGGAATGGCAGTGCTT | 2.96 |
| GGGAATTACTCTTCTATTACATGGAAGCCT | -0.78 |
| ATCCTAGGAGAGCCAAATCTTAAGGGTTAA | 0.079 |
| TCGAATGGTATGCTAGAGTACTTGGACTTT | 6.9 |
| GGCCGTGGGTGGAAGGAAAAGAGGAAAACC | -1.12 |
| AATACACAGCTAGCAGGTGACAAATCCAGG | -1.14 |
| TCTATCTCATTACTAATCCTCTTCTGTCCT | 1.19 |
| TTCTGAGGAGAAGAATGAAAGCCAAGGCAG | -1.17 |
| GTGCCCTTTGAGATTTGCATTCATGATCTT | 1.93 |

| Sequence | binding signal (log2 normalized intensity) |
| --- | --- |
| GTGATCAGGTGTGGGCATTAGCAGGGAGGA | -1.22 |
| GGGGATGAGATCTGAAGATAAATGCCTTAG | -1.03 |
| AGTGCAAGGCCCAGCTAGAAGCAGTGGGAC | -1.07 |
| GAACTGGTGACCGGACACAAAAGCTGCTGC | -1.22 |
| TTACTTCATAGGATTAAGTGCATACTCAAA | -0.0395 |
| ATGGGAATTAGGGAGTAGGGACAGCTAGTC | -1.19 |
| TGTGGTTCCCAAGAAGAGCCCAGACAAGCA | -1.02 |
| GTGTGTAGACTCCAGGCTTGTCCTTTTGAC | 2.27 |
| CCAGACACTGCTCTAGGCATTGGAGATATG | -0.853 |
| GCAGATGTGTCTTTATAACAGACTGTAGGC | 0.596 |
| GCCCTCCAAACTGAGAGATTTTTTCTTCCA | -1.28 |
| TGGCTTATGCAAATGTTATGGCTGGTTTGG | 1.81 |
| CTGCTGAGAGAGCAGGTTGAGTATCTACCA | -1.12 |
| ATGACTGCAGAGCTTGCTCTCACCAGCTTC | -1.2 |
| ATCAGGCTCTGGAATCTCTGGATTTCAGGT | 0.194 |
| TGGTTGACATACTTCTGAGTTTTATCAGCT | 0.132 |
| CGTCGATTAGCTGGGGACCCGTCGCTGCTG | -1.28 |
| TTCTCAGAAACGCCTGGCGCTTATCTGAGC | -1.1 |
| CTCCCAAGGTATCCTCCTAGAGTCCAAGGT | 2.68 |
| ATCTCCAGCTTATCTGTCCATCCCTCACTC | -0.559 |
| GCTAAAAGTTGAATTCTTGACTTTGGACTT | 5.79 |
| AGTTTATCTAAGATTCCCCCTACCCTCAAT | 4.67 |
| GAAGGGCAGGGCCTGGGAGATAACCCATCT | -1.11 |
| AAGCAACTCCTCTGTACAGCTCTTGTGCTC | -1.07 |
| TCATCAGCACATTGGTGAGAATGGAGGTAG | 0.75 |

| Sequence | binding signal (log2 normalized intensity) |
| --- | --- |
| TAATTGGAAATAATGCGACTTGCCTTGTGT | 0.764 |
| CCAGGCTGATTTAGCTATTTGACCTTCGGC | 4.92 |
| AAAGTATCTAAGGGCCTAGAAGAGTTCCTG | -1.11 |
| AAACTGTTCAAGACTTTCAGCCAACGCTGA | -1.2 |
| TCACATCTATCTCCCTACCCTCACCCCTGC | 3.71 |
| TTATCTTGGTGCCTGCAGAGCCTCCCCATT | 2.85 |
| GGGAATTTCCAAAGAGCAGCTAGCTCCAGT | -1.17 |
| GGTTTATGGCTTATGCATGTTTATGTGAAT | 1.88 |
| AAAATATTGCCAATATCTGCCATCTACTAA | -1.15 |
| GAGGTTCTTGTAAGGTTCTTGTATCTGATC | 1.48 |
| TAACCGAAAGTCTGACCCTTGACCAAGCAG | 4.29 |
| TGTAGAGGAGATGTGGTGGACTTTAACGAC | 2.53 |
| GCAAGGGTCAGAGTAAAGCTCCAGTCTCCT | -1.32 |
| CAAATTTTGATAATTACAGAGCAAGTAGAG | 0.868 |
| GTAGGCACAAAGGTGCAAAGTACATATTTA | 4.31 |
| TTGTGTTATGTACTTAGTGTTTTATGTGTA | 2.54 |
| ATTCAGAGGTCAGGGGAGAGAGGCAAGATC | -1.01 |
| TTTGTTAAGTACCCACTATAGATTGTGAGA | 0.431 |
| ATTTCCTGCAGGTGGTGACCCCAGACCTTA | 3.59 |
| GTACAGAGAGCATTCTGCTGCTCTTTAATC | -0.146 |
| AGAGACCTGGCGGATAGATAGAATCTTAAC | -1.12 |
| TCTGGATGCCTCACCTGGCAAGGCAGCCTC | -1.15 |
| GCGGAAGGACACAGATTCAGAGTCACATTT | -1.15 |
| AAATTTATCTATTGGGTACAATGTTCACTA | 2.68 |
| TTCGGCACCTTCTACACAGCACCCCTTGCA | 2.41 |

| Sequence | binding signal (log2 normalized intensity) |
| --- | --- |
| ACAGGCTGAGGATCTAATGCACCCAGAACC | -1.14 |
| CTGTTCTAAGCACCTCTGCTTATCTCAACT | -0.963 |
| TTGGATAACCTTCTGCTGGATGCCCAGGGA | 1.15 |
| CTCCTCACTATTGTGCTAATATAAGTCATT | 1.13 |
| CATATCAGCTTTCTTTTCCAACCATTGACA | 2.24 |
| ATAAGGGTATGGATTCTGGGACCCACCCAC | 0.861 |
| GCGGTTCATCCAACAGGTGAGGTGGGTGTT | 1.04 |
| GCTATCAGTACTGAAACATGCCTATGACCG | 1.31 |
| GGGAGGGAACAGTCCAGAGTCTGACAGAAC | -1.17 |
| TGATCGCCCTCCCCCAGAGAGAACAGTCCT | 4.9 |
| ACATTTTAACACAGGACAAATCAAGTGAAA | -1.11 |
| GAAAGTGAGCAGGCAGTGTCACAGAAATCA | -1.06 |
| GTGGCCGGACAGGTTGGGTCTGAAGCCACA | -1.09 |
| AACCAAGCCTGCAGCACCTTGATGCTGGAC | -0.00641 |
| ACCCAGGCATACTCAGTTATCAACCTTATC | -0.84 |
| TGTCTCTGGTCAGGGAGGGCTTTAGAATGT | 1.01 |
| TTGCTACACTGCCAAAGTTCAACCATACAC | 1.42 |
| ATCTACTTTTTGACCTTGCAGTGGCAAGGC | 1.73 |
| AATACAGAGTCCAAATTCCTTGGTATGGCA | 2.08 |
| AGGGGATTAGCATTTTTGTCTTTAACCCAA | 0.413 |
| TGCAGCAGGGGAATGGAGACACACCTGCGG | -1.11 |
| TTATGCAGACCTTTGCCCTTTGTTTACATA | 5.27 |
| GATCAAGGCTCCCTGGCCACAGGAATGTGA | -1.05 |
| GAGTCAACAGGCAGAAGAATGGATGAGCTA | -1.04 |
| TCATTGTACAAACACATACCTTAAATAAGA | -0.486 |

| Sequence | binding signal (log2 normalized intensity) |
| --- | --- |
| CAGGGGTTAGGGTGAAGTAAAGTTATACTT | 0.932 |
| GATCAGAATCATAAAGCAGGGAGAGTTGCA | -1.05 |
| GCACCCCGGGAGCGCCGAGCACGTCGAGCA | -1.07 |
| CCTCCTCTCTGGGTCAAAGGTCATCGCACC | 7.54 |
| TATGTCTCTCCTATTCAGGTATTTGCTCTG | 1.65 |
| ATGGCTCAGCCTGGCTGTGTAGACATCACC | -1.09 |
| TTCAGGACACCTTCAGGGCTGAGCCCACAG | -1.19 |
| ATAAACCTGCCTACATCAAGAGGATTACAT | -0.99 |
| TGACGGACAAAGGGCTCTCTCACCAGAAAA | -1.19 |
| TCTCTGTCCCAAGAGCAAGAAGGTCAGAGG | 1.92 |
| TTCCAGTTTTGGAGAGGGGAACGATAAAAT | -0.842 |
| TATCCCAAGACATCAATTAACTTGTCCTTT | 2.45 |
| CCTTTGCACCAGAGATAATATGCTTACTTA | 0.0286 |
| TTCACAGAGCAAGGGTCCAGATTAGAGCAC | 2.17 |
| ATGGCGACAAGAGTGACCTCTGGTCATTCA | 3.83 |
| GTTCAATGCTTCAGTGAGCCTTGACCTTCA | 4.09 |
| AGGCGGCGGCTCCGGGAGCTGGCGGCGCGG | -1.25 |
| AGCAGGGCTAGACTTTAACCCCCTTGTCTT | 4.76 |
| ATAGGCGCGCGTGTGTGTGTGTGTGTGGTG | 3.32 |
| GCAAGTCTCTTTTAGGCTGTCAGCCACCAA | -1.04 |
| TGTTTTGAGGGTTAAAGGAGATAATGGGTG | 1.51 |
| CTGCTGCCCAAAGGTCACCTCTTCAGATAG | 2.94 |
| GCCCACACTGCCCATCCCCACTGAAAGTGT | 3.06 |
| TTACTATAGGTTCTACTCTCCCCAGTTCAA | 3.24 |
| CAGAGATAAGGTAGGCACGTAAATAAGGAT | -1.06 |

| Sequence | binding signal (log2 normalized intensity) |
| --- | --- |
| AGGGTCTTTGCAACTGTGTGTGGCCTGCAC | 1.38 |
| AATGCGCCTGGACAGATAAGAAGGGGTCAG | 3.6 |
| CCACTTTGTCCTTCACTTGTAGGAGACCTT | 2.19 |
| TATCATCAACATGCACTAGCAGTCCTATTT | -0.0628 |
| ACCCCATTTTCCTAAAAATTATCTTTATCT | -1.15 |
| CAAGTTGCAGGGATGGACTTTAATCTCCAA | 5.02 |
| AAAGTGGTAGCCCACAATCAGTCTGATTGG | -1.2 |
| GTGTTTAACCTTTGGGTGTGTTCAGCGAGG | 2.07 |
| ACTAAAGTTCAGGAGGGAGGAGCATTTCAC | -1.06 |
| TAGGCTGGACTCTGACCCATTCCTTCTCAC | 4.33 |
| CGGGCGCCCTGGTCTCTGCTACCTGTAGCT | -1.04 |
| TTGTGATTTCCAAAAGGTACCACTGTTTGC | 0.562 |
| ACTGACCACAATTACTGAAGTTCCAGAGCC | -0.744 |
| AACGGGGACGCTTTAGAGAAACGCACTCGC | -0.933 |
| CAACTCCACGCCCGCCGCCAGGTGGCCGAG | -1.07 |
| TCAGAACTTCACTCAGTGGGGTGTCTGTGT | 2.09 |
| AACAAGCAGCAAGGCCTGAATGAGCTCTGG | -1.09 |
| CCAGCACTTCGACCTCACATTGTAGCTAAA | -0.928 |
| TGGTCAGCTCCTGGGAGATGAGCTCTGAAC | 0.907 |
| GGCAAGTGAGGGAGCCTAGATTAGATCAGA | -1.09 |
